# Data from the supplement of paper PMC4604168 (melanoma cell lines).
# Some of the results follow. Most values come without repeats; read them as rough.
# Columns and labels:
# Assay in all cases: cell count relative to DMSO control; melanoma cells; higher = more viable cells
# Conditions in all cases: library dose: standard library concentration; 72 h
# G361 = tested on: G361
# IPC-298 = tested on: IPC-298
# IST-MEL1 = tested on: IST-MEL1
# LB2518-MEL = tested on: LB2518-MEL
# LOXIMVI = tested on: LOXIMVI
# MEL-HO = tested on: MEL-HO
# MZ2-MEL = tested on: MZ2-MEL
# MeWo = tested on: MeWo
# RPMI7951 = tested on: RPMI7951
# RVH-421 = tested on: RVH-421
# 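Also: cells treated in 1,536-well plates, then fixed and DAPI-stained, with nuclei counted from automated high-throughput microscope images.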
Structure (SMILES),cell count (G361) [%],cell count (IPC-298) [%],cell count (IST-MEL1) [%],cell count (LB2518-MEL) [%],cell count (LOXIMVI) [%],cell count (MEL-HO) [%],cell count (MZ2-MEL) [%],cell count (MeWo) [%],cell count (RPMI7951) [%],cell count (RVH-421) [%]
"O=C(/C=C/c1cccnc1)NCCCCC1CCN(C(=O)c2ccccc2)CC1 + C=CCn1c(=O)c2cnc(Nc3ccc(N4CCN(C)CC4)cc3)nc2n1-c1cccc(C(C)(C)O)n1 [MK1775] (first compound 0.05 µM, partner dose 0.1 µM)",3.42,26.4,66.2,46.8,59.6,41,32.7,91.7,75.2,37.9
"O=C(/C=C/c1cccnc1)NCCCCC1CCN(C(=O)c2ccccc2)CC1 + COc1ccc2c(c1)CCC1C2CCC2(C)C(NCCCCCCN3C(=O)C=CC3=O)CCC12 [U73122] (first compound 0.05 µM, partner dose 2 µM)",3.56,39.3,56.5,60.9,59.2,34.4,24.6,69.8,32,42.9
"CC1(C)CCC(c2ccc(Cl)cc2)=C(CN2CCN(c3ccc(C(=O)NS(=O)(=O)c4ccc(N[C@H](CCN5CCOCC5)CSc5ccccc5)c(S(=O)(=O)C(F)(F)F)c4)cc3)CC2)C1 + Cc1cc(Nc2cc(N3CCN(C)CC3)nc(/C=C/c3ccccc3)n2)n[nH]1 [ENMD2076] (first compound 2 µM, partner dose 0.2 µM)",72.2,87.1,72.1,58.5,46,56.9,77.2,67.9,38.4,41.7
"Cc1ccc(Nc2nccc(N(C)c3ccc4c(C)n(C)nc4c3)n2)cc1S(N)(=O)=O [Pazopanib] + CCCS(=O)(=O)Nc1ccc(F)c(C(=O)c2c[nH]c3ncc(Cl)cc23)c1F [PLX4720] (first compound 2 µM, partner dose 0.4 µM)",67,64.9,92.4,89.6,81.7,84.5,66.4,88.5,78.3,85.1
"O=C(/C=C/c1cccnc1)NCCCCC1CCN(C(=O)c2ccccc2)CC1 + c1cc(-c2cnn3cc(-c4ccc(OCCN5CCCCC5)cc4)cnc23)ccn1 [Dorsomorphin] (first compound 0.05 µM, partner dose 2 µM)",4.88,27.9,58.6,70,92.2,43.7,30,79.2,98.1,41.2
"Cc1ccc(Nc2nccc(N(C)c3ccc4c(C)n(C)nc4c3)n2)cc1S(N)(=O)=O [Pazopanib] + O=C1NC(=O)/C(=C/c2ccc(-c3ccc(F)cc3O)o2)S1 [AS252424] (first compound 2 µM, partner dose 5 µM)",80.2,73.7,94.5,82.3,77.5,76.9,72.5,81.5,74.7,66.7
"CC1(C)CCC(c2ccc(Cl)cc2)=C(CN2CCN(c3ccc(C(=O)NS(=O)(=O)c4ccc(N[C@H](CCN5CCOCC5)CSc5ccccc5)c(S(=O)(=O)C(F)(F)F)c4)cc3)CC2)C1 + O=C(O)C(=O)Nc1sc2c(c1C(=O)O)CCNC2 [TCS401] (first compound 2 µM, partner dose 8.33333 µM)",83.6,112,89.9,82.1,37.7,78.5,95,88.5,43,69.3
"O=C(/C=C/c1cccnc1)NCCCCC1CCN(C(=O)c2ccccc2)CC1 + OCCn1cc(-c2cnc3nnn(Cc4ccc5ncccc5c4)c3n2)cn1 [PF04217903] (first compound 0.05 µM, partner dose 5 µM)",4.58,31.1,65.9,69.1,49.6,49.6,38.8,98.7,107,31.5
"O=C(/C=C/c1cccnc1)NCCCCC1CCN(C(=O)c2ccccc2)CC1 + COCC[n+]1c2c(n(Cc3cnccn3)c1C)C(=O)c1ccccc1C2=O [YM155] (first compound 0.05 µM, partner dose 0.002 µM)",4.51,21.8,25.7,25.7,50,29.7,8.81,42.9,30.1,93
"CC1(C)CCC(c2ccc(Cl)cc2)=C(CN2CCN(c3ccc(C(=O)NS(=O)(=O)c4ccc(N[C@H](CCN5CCOCC5)CSc5ccccc5)c(S(=O)(=O)C(F)(F)F)c4)cc3)CC2)C1 + CN(c1ncccc1CNc1nc(Nc2ccc3c(c2)CC(=O)N3)ncc1C(F)(F)F)S(C)(=O)=O [PF562271] (first compound 2 µM, partner dose 0.4 µM)",58,88.2,61.4,64.5,39.6,51.8,63.6,69.6,15.6,47.9
"O=C(/C=C/c1cccnc1)NCCCCC1CCN(C(=O)c2ccccc2)CC1 + Cn1cnc2c(F)c(Nc3ccc(Br)cc3Cl)c(C(=O)NOCCO)cc21 [selumetinib] (first compound 0.05 µM, partner dose 0.075 µM)",5.13,38.5,60.8,39.9,105,46.5,42.5,82.1,107,61.8
"O=C(/C=C/c1cccnc1)NCCCCC1CCN(C(=O)c2ccccc2)CC1 + CCCCCCCCCCCC1=C(O)C(=O)C=C(O)C1=O [Embelin] (first compound 0.05 µM, partner dose 6 µM)",20.5,53.5,64.8,82.5,88.2,62,69.7,112,82,69.2
"CC1(C)CCC(c2ccc(Cl)cc2)=C(CN2CCN(c3ccc(C(=O)NS(=O)(=O)c4ccc(N[C@H](CCN5CCOCC5)CSc5ccccc5)c(S(=O)(=O)C(F)(F)F)c4)cc3)CC2)C1 + CCCCCCCCc1ccc(CCC(N)(CO)CO)cc1 [fingolimod] (first compound 2 µM, partner dose 10 µM)",0.273,0.296,3.57,0.902,22.6,0.616,1.63,7,0.673,7.96
"Cc1ccc(Nc2nccc(N(C)c3ccc4c(C)n(C)nc4c3)n2)cc1S(N)(=O)=O [Pazopanib] + Cc1cn(-c2cc(NC(=O)c3ccc(C)c(Nc4nccc(-c5cccnc5)n4)c3)cc(C(F)(F)F)c2)cn1 [nilotinib] (first compound 2 µM, partner dose 1 µM)",78.2,94.8,93.2,98.1,125,91.5,80.5,86,87.8,99.6
"O=C(/C=C/c1cccnc1)NCCCCC1CCN(C(=O)c2ccccc2)CC1 + CC(C)CCN1c2nc(Nc3cc(F)c(O)c(F)c3)ncc2N(C)C(=O)C1C [BID1870] (first compound 0.05 µM, partner dose 1 µM)",4.43,30.5,54.1,73.3,58.7,41.3,36.1,77.6,86.5,44.3
"O=C(/C=C/c1cccnc1)NCCCCC1CCN(C(=O)c2ccccc2)CC1 + CN(c1ncccc1CNc1nc(Nc2ccc3c(c2)CC(=O)N3)ncc1C(F)(F)F)S(C)(=O)=O [PF562271] (first compound 0.05 µM, partner dose 0.4 µM)",2.48,23.6,54.3,68.6,67.8,31.9,23.6,111,78.5,13.6
"Cc1ccc(Nc2nccc(N(C)c3ccc4c(C)n(C)nc4c3)n2)cc1S(N)(=O)=O [Pazopanib] + CNC(=O)c1cc(Oc2ccc(NC(=O)Nc3ccc(Cl)c(C(F)(F)F)c3)cc2)ccn1 [sorafenib] (first compound 2 µM, partner dose 2 µM)",74.8,92.9,91.9,101,84.9,93.3,99.8,80.2,73,76.5
"O=C(/C=C/c1cccnc1)NCCCCC1CCN(C(=O)c2ccccc2)CC1 + Cc1ccc(NC(=O)c2cccc(N(C)C)c2)cc1NC(=O)c1ccc(O)cc1 [ZM336372] (first compound 0.05 µM, partner dose 10 µM)",4.98,50.4,52.7,59.9,96.3,40.4,35.1,111,106,36.9
"O=C(/C=C/c1cccnc1)NCCCCC1CCN(C(=O)c2ccccc2)CC1 + C[C@@H]1CCN(C(=O)CC#N)C[C@@H]1N(C)c1ncnc2[nH]ccc12 [CP690550] (first compound 0.05 µM, partner dose 5 µM)",3.81,27.5,59.5,47.2,59.4,40.8,34.5,92.2,74.6,35
"Cc1ccc(Nc2nccc(N(C)c3ccc4c(C)n(C)nc4c3)n2)cc1S(N)(=O)=O [Pazopanib] + Cc1nc(Nc2ncc(C(=O)Nc3c(C)cccc3Cl)s2)cc(N2CCN(CCO)CC2)n1 [dasatanib] (first compound 2 µM, partner dose 0.02 µM)",63,58.6,95.4,67,20.8,74.2,31,68.9,25.4,63.7
"CC1(C)CCC(c2ccc(Cl)cc2)=C(CN2CCN(c3ccc(C(=O)NS(=O)(=O)c4ccc(N[C@H](CCN5CCOCC5)CSc5ccccc5)c(S(=O)(=O)C(F)(F)F)c4)cc3)CC2)C1 + C[C@@H]1CCN(C(=O)CC#N)C[C@@H]1N(C)c1ncnc2[nH]ccc12 [CP690550] (first compound 2 µM, partner dose 5 µM)",77,108,71.3,103,37.2,70.1,116,105,43.7,79.1
